Data: the supplement of paper PMC11417369
The other results are listed elsewhere or left out.

System: PfHDP1 homeodomain (GST-tagged)
Experiment: gcPBM binding intensity (ln(normalized median fluorescence intensity)); higher = stronger DNA binding
Summary of the method: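 After 1 h on an Agilent 4 × 180k array of primer-extended double-stranded 36-bp intergenic genomic probes and negative controls, bound GST-tagged P. falciparum DNA-binding domains were detected with Alexa488 anti-GST antibody and scanned at 488 nm. The domains had been expressed in E. coli, and binding took place in 1× PBS with 1% milk, 0.2 mg/ml BSA, 0.5% salmon testes DNA and 0.03% Triton X-100. Binding intensity is the highest Masliner-normalised natural-log median intensity across replicate spots of either probe orientation.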

| Sequence | gcPBM binding intensity (ln) |
| --- | --- |
| ATTAATAAGAAATATACACACATGGATAAATACATA [CACACA_site1872] | 6.54 |
| TTTCTTGCTACATGAAGTACACTTTCTATGACTCGT [XGTACX_site5583] | 6.26 |
| TAATTATGCAGACACACACACACACCCAACTAAAAA [CACACA_site2569] | 7 |
| TATTTATTGTGATACTTATATTACTTAATGATTAAA [CACACA_negctrl_site676] | 6.15 |
| ATATATTATATAAAGTGTACAAAAAAAATATATAAA [XGTACX_site8065] | 7.14 |
| CTATTTCATGGACACACACACACAAACAAACATATA [CACACA_site4696] | 7.02 |
| TTATTGCATTGTTTTTATAAAAAAAAAAAAAAAATT [XGTACX_negctrl_site104] | 6.28 |
| CACAATACTTTCATCACACATATATATATATATATA [CACACA_site4677] | 9.36 |
| ACTAAACTAATATGTACACACATATAACATTAATTT [CACACA_site7128] | 6.62 |
| TTTCGTTCATAAAAAAGTACATATGAGCAAAAGGTA [XGTACX_site8936] | 9.58 |
| GAATTAAAATAATACGTACACACATGTATAATACAT [CACACA_site1004] | 6.72 |
| TATATATATATATATAGTACATATTTATATATGAAA [XGTACX_site8488] | 9.34 |
| TTGTTCTATTTAAGTAGTACATACACACACATATAC [XGTACX_site8484] | 7.01 |
| ACATATATATATTCTACACACTTATAATATAATACA [CACACA_site2461] | 6.83 |
| ATTTTTCTTTTTAATACACACAAAAGTGATACAAAC [CACACA_site3923] | 6.98 |
| TTTTTTTGTATTTGTTTATTTAATGATAAAATTAAA [CACACA_negctrl_site225] | 6.64 |
| TGTATTATATATACACAAATATTTATGTGTGTGTTT [XGTACX_negctrl_site475] | 6.71 |
| AAATAATATTTTTTTTTTTTTTTTTTTTTATGTTAT [CACACA_negctrl_site809] | 6.06 |
| TGGTAGTATATCATAGAAATCATTGTATAACAAATA [XGTACX_negctrl_site569] | 6.19 |

| Sequence | gcPBM binding intensity (ln) |
| --- | --- |
| AAAAAAAAAAAAAAAACACACAAATCATAAATAAAT [CACACA_site478] | 6.58 |
| ATAGTCTTAATGACTACACACCTAACTATGCATGCA [CACACA_site5084] | 6.24 |
| ATACAGTTGCATATGGTGCACGAATAATACACCTAT | 10.4 |
| ATAGTATCTGGTAGCTGTACGAGTCGTAGAGTGTAG [XGTACX_site2030] | 7.08 |
| TATGTATTTTTTAAGTGTACCTATATATATATATAT [XGTACX_site7934] | 9.25 |
| TGGGAAGGGTGGGAAACTTTATCAAAAACTTATTAC [GTGCAC_negctrl_site16] | 6.83 |
| TATAATAATAATTATTGTACGATTAGGTTAATTCAT [XGTACX_site1984] | 6.23 |
| AGAAAGGTGGTATTAAAAGAATAACCTATGAATAAA [GTGCAC_negctrl_site325] | 6.45 |
| ATAATATATACTATATGTACATATCTTTTCCTCTTT [XGTACX_site5553] | 6.76 |
| TTTTTCATAAAAAAATAAAAAAAATTAACATAGAAA [XGTACX_negctrl_site11] | 6.34 |
| TTTTAGAGTGGTATATATTAATTTTTAATAAAAAAA [CACACA_negctrl_site1652] | 6.33 |
| TGTGCATAAATTTATGCACACATAAAAAAAAAAAAA [CACACA_site8954] | 11 |
| AATAAAAGAAGACAGAGTACACAGGTTGTATTTTCC [XGTACX_site7208] | 6.36 |
| AGGTTTCATTTAGCATGTACATATTATAAAAATTGT [XGTACX_site8448] | 6.73 |
| AAGATTACTTATATATGTACACATAATACAAATGTC [XGTACX_site520] | 6.39 |
| TCTGTTAATATTTATACACACATATATATATATATA [CACACA_site1139] | 9.27 |
| AAAAAATTATACCTTTGTACATAAATAAAATATTAT [XGTACX_site418] | 6.23 |
| ATAACATAAGGAAATACACACATATATAAGTATATA [CACACA_site778] | 6.43 |
| ACCCATTGCTCACGTGCACACATAGAAAAATAATTC [CACACA_site4389] | 10.7 |

| Sequence | gcPBM binding intensity (ln) |
| --- | --- |
| TATGTATATATTTACGCATGCTACTCTATTTTGAGA [TGCATGCA_site990] | 6.72 |
| TTTATATAAATTTATTCACACAACTAATTTTTTAAA [CACACA_site4848] | 6.5 |
| TGATAAATTAAAAATTGTACTATTATAATAATATAT [XGTACX_site6615] | 6.57 |
| ATCAAATAGAGACACACACACCTAAACATAAAAGAA [CACACA_site7321] | 6.94 |
| ACAATAAACATATATACACACACAAAAAAAAAAACA [CACACA_site8033] | 6.72 |
| CATATATATTTGTTCACACACACACTAATAAAAAAA [CACACA_site8787] | 6.85 |
| TGGAGGAACCTCATATGTACGTATAAATATATATTT [XGTACX_site5603] | 6.6 |
| TTAAAGCACCCATGCACACACACAAAGGAAAAGAAA [CACACA_site233] | 8.78 |
| TTGTGTAAAGGTATTATTGTATTATTCAAAATAAAA [XGTACX_negctrl_site167] | 6.43 |
| AATATATAATATATATGTACTTATATATAAAAGATA [XGTACX_site7635] | 6.55 |
| ATTTATTAATATCCCAGTACTCATGGGGAATAATGA [XGTACX_site4014] | 5.99 |
| GGTAGGGATTATACCACACACACATACACATAAATA [CACACA_site3179] | 6.8 |
| ACTATTAAAATGAATACACACAAATATAAAAATATA [CACACA_site4145] | 6.43 |
| ACGCTACATAAATACGTGCACATCTTTTTGTGTATA [GTGCAC_site9675] | 9.77 |
| AATATAAACAAACACACACACATATATATATATATT [CACACA_site5592] | 6.92 |
| ATAAAAAAAGGACACACACACATATATTTATTTATA [CACACA_site7438] | 6.81 |
| AAAAAAAAAAAAAATAGTACAATACCCAAATATAAC [XGTACX_site6684] | 6.77 |
| ATGTCATATAATAGTACACACATGAAAATATAAATA [CACACA_site3215] | 6.72 |
